# According to article PMC9911399, “Two distinct binding modes provide the RNA-binding protein RbFox with extraordinary sequence specificity”:
# Residue numbers refer to the chain shown, from its start. Some of the results follow.
# T1: RBFOX1 RRM (Homo sapiens, UniProt Q9NWB1 109-208)
# T1 sequence: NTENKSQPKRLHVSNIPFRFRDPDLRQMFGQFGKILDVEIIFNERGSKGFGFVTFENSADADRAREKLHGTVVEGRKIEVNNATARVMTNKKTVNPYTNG
# B1: CUUGGGC (DNA:RNA)
# RNA: GGGAGACCGGAAUUCAGAUUGUCCCUUGGGCUUAAAUCCCGUCGUAGCCACCA
# DNA 1: CAATCTGAATTCCGGTCTCCC
# DNA 2: TGGTGGCTACGACGGGATT
# B2: GCUGAAG (DNA:RNA)
# RNA: B1 RNA with C25G, U26C, G29A, G30A, C31G
# DNA 1: CAATCTGAATTCCGGTCTCCC
# DNA 2: TGGTGGCTACGACGGGATT
# B3: UUGAUAG (DNA:RNA)
# RNA: B1 RNA with C25U, U27G, G28A, G29U, G30A, C31G
# DNA 1: CAATCTGAATTCCGGTCTCCC
# DNA 2: TGGTGGCTACGACGGGATT
# B4: CUAUAUG (DNA:RNA)
# RNA: B1 RNA with U27A, G28U, G29A, G30U, C31G
# DNA 1: CAATCTGAATTCCGGTCTCCC
# DNA 2: TGGTGGCTACGACGGGATT
# B5: GUAAGGG (DNA:RNA)
# RNA: B1 RNA with C25G, U27A, G28A, C31G
# DNA 1: CAATCTGAATTCCGGTCTCCC
# DNA 2: TGGTGGCTACGACGGGATT
# B6: CUUCCAG (DNA:RNA)
# RNA: B1 RNA with G28C, G29C, G30A, C31G
# DNA 1: CAATCTGAATTCCGGTCTCCC
# DNA 2: TGGTGGCTACGACGGGATT
# B7: UCGAGUA (DNA:RNA)
# RNA: B1 RNA with C25U, U26C, U27G, G28A, G30U, C31A
# DNA 1: CAATCTGAATTCCGGTCTCCC
# DNA 2: TGGTGGCTACGACGGGATT
# B8: AAUAACA (DNA:RNA)
# RNA: B1 RNA with C25A, U26A, G28A, G29A, G30C, C31A
# DNA 1: CAATCTGAATTCCGGTCTCCC
# DNA 2: TGGTGGCTACGACGGGATT
# B9: GAUGUUC (DNA:RNA)
# RNA: B1 RNA with C25G, U26A, G29U, G30U
# DNA 1: CAATCTGAATTCCGGTCTCCC
# DNA 2: TGGTGGCTACGACGGGATT
# B10: UGCCCCU (DNA:RNA)
# RNA: GGGAGACCGGAAUUCAGAUUGUCCUGCCCCUUUAAAUCCCGUCGUAGCCACCA
# DNA 1: CAATCTGAATTCCGGTCTCCC
# DNA 2: TGGTGGCTACGACGGGATT
# B11: ACCAGUA (DNA:RNA)
# RNA: B1 RNA with C25A, U26C, U27C, G28A, G30U, C31A
# DNA 1: CAATCTGAATTCCGGTCTCCC
# DNA 2: TGGTGGCTACGACGGGATT
# B12: AGGACAA (DNA:RNA)
# RNA: B10 RNA with U25A, C27G, C28A, C30A, U31A
# DNA 1: CAATCTGAATTCCGGTCTCCC
# DNA 2: TGGTGGCTACGACGGGATT
# B13: UUGCAUU (DNA:RNA)
# RNA: B10 RNA with G26U, C27G, C29A, C30U
# DNA 1: CAATCTGAATTCCGGTCTCCC
# DNA 2: TGGTGGCTACGACGGGATT
# B14: UCUACUU (DNA:RNA)
# RNA: B10 RNA with G26C, C27U, C28A, C30U
# DNA 1: CAATCTGAATTCCGGTCTCCC
# DNA 2: TGGTGGCTACGACGGGATT
# B15: GGCGGCC (DNA:RNA)
# RNA: B1 RNA with C25G, U26G, U27C, G30C
# DNA 1: CAATCTGAATTCCGGTCTCCC
# DNA 2: TGGTGGCTACGACGGGATT
# B16: CGCGCGA (DNA:RNA)
# RNA: B1 RNA with U26G, U27C, G29C, C31A
# DNA 1: CAATCTGAATTCCGGTCTCCC
# DNA 2: TGGTGGCTACGACGGGATT
# B17: AAAACCC (DNA:RNA)
# RNA: B10 RNA with U25A, G26A, C27A, C28A, U31C
# DNA 1: CAATCTGAATTCCGGTCTCCC
# DNA 2: TGGTGGCTACGACGGGATT
# B18: UCCUGCC (DNA:RNA)
# RNA: B10 RNA with G26C, C28U, C29G, U31C
# DNA 1: CAATCTGAATTCCGGTCTCCC
# DNA 2: TGGTGGCTACGACGGGATT
# B19: AGUCCCG (DNA:RNA)
# RNA: B10 RNA with U25A, C27U, U31G
# DNA 1: CAATCTGAATTCCGGTCTCCC
# DNA 2: TGGTGGCTACGACGGGATT
# B20: GCAACAU (DNA:RNA)
# RNA: B10 RNA with U25G, G26C, C27A, C28A, C30A
# DNA 1: CAATCTGAATTCCGGTCTCCC
# DNA 2: TGGTGGCTACGACGGGATT
# Target: T1, RBFOX1 RRM
# Assay: EMSA; HiTS-Eq, 1 nM pool, 10 min; buffer printed only for the single-RNA assays: 10 mM Tris pH 7.5, 150 mM NaCl, 3.4 mM EDTA, 0.001% NP-40, 30 C
# Details: tags: His6 N-terminal (pET28a); label: 5' 32P
# Summary of the method: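 A pool of RNA with 7 randomized nucleotides, 5′-radiolabelled and with DNA-annealed flanks, was equilibrated at 1 nM for 10 min in 50 µL with purified RbFox RRM, wild type or mutant, across increasing protein concentrations. Free RNA was separated by 8% native PAGE, excised, reverse-transcribed, barcoded by PCR and sequenced. Relative association constants were obtained from read-count changes of each RNA species versus the control reaction and normalised to the cognate motif.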
row,Binder,binding signal
1,B1,0.00507 KA relative to UGCAUGU
2,B2,0.0207 KA relative to UGCAUGU
3,B3,0.0223 KA relative to UGCAUGU
4,B4,0.0105 KA relative to UGCAUGU
5,B5,0.00398 KA relative to UGCAUGU
6,B6,0.00447 KA relative to UGCAUGU
7,B7,0.0131 KA relative to UGCAUGU
8,B8,0.00107 KA relative to UGCAUGU
9,B9,0.0179 KA relative to UGCAUGU
10,B10,0.0119 KA relative to UGCAUGU
11,B11,0.00176 KA relative to UGCAUGU
12,B12,0.0149 KA relative to UGCAUGU
13,B13,0.0186 KA relative to UGCAUGU
14,B14,0.00231 KA relative to UGCAUGU
15,B15,0.0183 KA relative to UGCAUGU
16,B16,0.0141 KA relative to UGCAUGU
17,B17,0.000781 KA relative to UGCAUGU
18,B18,0.0121 KA relative to UGCAUGU
19,B19,0.00745 KA relative to UGCAUGU
20,B20,0.00634 KA relative to UGCAUGU
